Experimental data from paper PMC4336329 (PLoS ONE, 2015).
The whole screen tested about 310,000 compounds, of which about 14,000 (4.5%) showed an effect of 50% or more. Effects have a minus sign here. This is one part of the list.

What follows are molecules tested against human ether-à-go-go-related gene (hERG) potassium channel (human, UniProt Q12809) (assay: primary screen, population patch clamp on CHO cells stably expressing hERG).
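Note: peak tail current of the secondary pulse compared with the same well before compound.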

Chain of human ether-à-go-go-related gene (hERG) potassium channel (Q12809 whole entry, looked up): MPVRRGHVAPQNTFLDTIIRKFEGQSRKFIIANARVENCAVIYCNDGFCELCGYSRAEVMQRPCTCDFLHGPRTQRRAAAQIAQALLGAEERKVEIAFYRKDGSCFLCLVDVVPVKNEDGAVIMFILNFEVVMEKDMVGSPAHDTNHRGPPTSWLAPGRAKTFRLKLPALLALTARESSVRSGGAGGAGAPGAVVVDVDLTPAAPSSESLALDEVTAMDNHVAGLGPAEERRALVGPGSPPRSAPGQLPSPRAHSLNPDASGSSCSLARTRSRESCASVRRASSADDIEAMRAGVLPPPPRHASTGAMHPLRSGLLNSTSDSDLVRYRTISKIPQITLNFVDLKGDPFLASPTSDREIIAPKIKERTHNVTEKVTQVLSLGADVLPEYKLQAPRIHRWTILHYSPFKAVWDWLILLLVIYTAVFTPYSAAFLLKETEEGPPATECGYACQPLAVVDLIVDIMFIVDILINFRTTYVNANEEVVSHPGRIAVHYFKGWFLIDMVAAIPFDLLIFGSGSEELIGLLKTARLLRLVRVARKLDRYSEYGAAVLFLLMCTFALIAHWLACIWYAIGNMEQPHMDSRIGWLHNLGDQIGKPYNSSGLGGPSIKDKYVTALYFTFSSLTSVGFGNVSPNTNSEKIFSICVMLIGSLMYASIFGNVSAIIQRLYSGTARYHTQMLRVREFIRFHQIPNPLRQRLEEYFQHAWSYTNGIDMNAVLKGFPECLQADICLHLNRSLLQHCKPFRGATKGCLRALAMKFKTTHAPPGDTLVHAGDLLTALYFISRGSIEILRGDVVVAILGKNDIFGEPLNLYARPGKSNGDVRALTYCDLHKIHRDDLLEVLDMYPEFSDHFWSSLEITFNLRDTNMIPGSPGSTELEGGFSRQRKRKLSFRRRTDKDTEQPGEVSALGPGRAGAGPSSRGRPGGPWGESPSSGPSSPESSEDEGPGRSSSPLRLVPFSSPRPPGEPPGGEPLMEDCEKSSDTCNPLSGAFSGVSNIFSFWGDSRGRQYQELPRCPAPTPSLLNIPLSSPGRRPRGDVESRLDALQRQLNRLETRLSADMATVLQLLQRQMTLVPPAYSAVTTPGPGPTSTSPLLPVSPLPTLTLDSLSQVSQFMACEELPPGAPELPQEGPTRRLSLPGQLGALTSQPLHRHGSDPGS

Going from `CC(=O)Nc1ccc(S(=O)(=O)NCc2ccccn2)cc1` to `CNS(=O)(=O)c1ccc(N=Cc2c(O)n(-c3ccccc3)c(=O)[nH]c2=O)cc1`, the “hERG current change (%, negative = inhibition) at 10uM” value rises from 9.6% to 12.6%.

Compared with `CCOc1ccc(NC(=O)N2CCC(C(N)=O)(N3CCCCC3)CC2)cc1`, `CCOc1ccc(CNC(=O)CCCn2ccc3cc(S(=O)(=O)N4CCCC4)ccc32)cc1` is lower in “hERG current change (%, negative = inhibition) at 10uM” value: -3.12% for the first, -32.7% for the second.

Going from `c1ccc(Cn2nnc3c(N4CCCCCC4)ncnc32)cc1` to `CC1(C)Cc2c(C#N)c(N3CCOCC3)nc(Cc3ccccc3)c2CO1`, the “hERG current change (%, negative = inhibition) at 10uM” value rises from -13.2% to -4.34%.

Going from `CCn1cc(C2C(C(=O)Nc3cc(C)ccn3)=C(C)NC3=C2C(=O)CC(C)(C)C3)c(C)n1` (stereo not shown) to `Cc1nn(CC(=O)OCC(=O)Nc2c(C(C)C)cccc2C(C)C)c(C)c1[N+](=O)[O-]`, the “hERG current change (%, negative = inhibition) at 10uM” value falls from 11.3% to 4.75%.

First: CCCN(CCC)C(=O)Cn1c2ccccc2c2nc(=O)cc(C)n21
Second: COc1ccc(C(C)=O)cc1COC(=O)Cn1cnc2ccccc2c1=O
The “hERG current change (%, negative = inhibition) at 10uM” value of the first is higher: 2.47% for the first, -1.2% for the second.

Going from `COc1ccc(C2(O)C(=O)Nc3ccccc32)cc1` (stereo not shown) to `COc1ccc(C(=O)C2CC2c2ccc3c(c2)OCO3)cc1` (stereo not shown), the “hERG current change (%, negative = inhibition) at 10uM” value falls from 0.493% to -20.8%.

Compared with `Cc1ccc(SCCC(=O)Nc2cccnc2)cc1`, `COc1ccc(NC(=O)Cn2cnc3c(nnn3-c3ccc(C)cc3)c2=O)cc1` is higher in “hERG current change (%, negative = inhibition) at 10uM” value: 17.8% for the first, 18.4% for the second.

Going from `CN1CCC(CO)(Cc2ccccc2)CC1` to `Cn1c(=O)c2c(nc3n2CCCN3CCc2ccccc2)n(C)c1=O`, the “hERG current change (%, negative = inhibition) at 10uM” value falls from 16.2% to -1.45%.

Compared with `Cc1nc2c(C)cccn2c1C(=O)N/N=C/c1ccccc1[N+](=O)[O-]`, `Cc1cc(/C=N/NC(=O)c2ccncc2)c(C)n1-c1cccc(C(F)(F)F)c1` is lower in “hERG current change (%, negative = inhibition) at 10uM” value: 2.55% for the first, -3.21% for the second.

Compared with `Cn1ccc(=NC=C(C#N)C#N)c2ccccc21`, `Cn1ccc2c([N+](=O)[O-])cccc2c1=O` is lower in “hERG current change (%, negative = inhibition) at 10uM” value: 13.6% for the first, 1.44% for the second.

First: CSc1ccc(-c2ccco2)nn1
Second: O=C(/C=C/c1ccc(Cl)c(Cl)c1)NCc1ccco1
The “hERG current change (%, negative = inhibition) at 10uM” value of the first is higher: 17.7% for the first, -14.1% for the second.

Compared with `O=C(NCCC(=O)N1CCc2ccccc21)c1ccco1`, `O=C(NCC(=O)N(CCc1ccccc1)C(C(=O)NC1CCCC1)c1cccnc1)c1ccco1` (stereo not shown) is lower in “hERG current change (%, negative = inhibition) at 10uM” value: 6.04% for the first, -43.8% for the second.

First: Cc1nc(C)c(-c2csc(Nc3ccc(O)c(C(=O)O)c3)n2)s1
Second: COc1cc(/C=N/NC(=O)c2cc(C)oc2C)ccc1O
The “hERG current change (%, negative = inhibition) at 10uM” value of the first is higher: 20.5% for the first, 10.8% for the second.

First: C/C(=N\NC(=O)c1cccc(Cl)c1)C1C(=O)c2ccccc2C1=O
Second: Cc1ccccc1NC(=O)c1ccc(-c2ccc(Cl)cc2Cl)o1
The “hERG current change (%, negative = inhibition) at 10uM” value of the first is lower: -10.5% for the first, -1.75% for the second.

Going from `CC(C)N=C(NC#N)SCc1ccc(Br)cc1` to `CC(C)n1cc(-c2ccc(Cl)cc2)cc(C#N)c1=O`, the “hERG current change (%, negative = inhibition) at 10uM” value falls from 17.1% to 8.72%.

First: Cc1c(Br)ccc(NC(=O)COc2ccccc2C(N)=O)c1C
Second: Cc1ccc(C(=O)Nc2ccsc2C(=O)O)cc1
The “hERG current change (%, negative = inhibition) at 10uM” value of the first is lower: 21.1% for the first, 21.4% for the second.

Going from `O=C(OCC(=O)N1CCCC1=O)c1cc(S(=O)(=O)N2CCOCC2)ccc1F` to `CCOc1ccc2cc(S(=O)(=O)N3CCOCC3)ccc2c1`, the “hERG current change (%, negative = inhibition) at 10uM” value rises from -22.5% to -0.497%.

Going from `CCOC(=O)C1CCN(S(=O)(=O)c2c(C(=O)N3CCCCC3)c(C)n(C)c2C)CC1` to `CC(=O)N1CCC(N(CCN2CCOCC2)C(=S)Nc2cccc(C)c2)CC1`, the “hERG current change (%, negative = inhibition) at 10uM” value rises from -5.52% to 0.988%.

Going from `CS(=O)(=O)c1cccc(-c2nnc(NC(=O)c3ccc4ncsc4c3)o2)c1` to `CN(c1ccccc1)S(=O)(=O)c1cccc(C(=O)OCC(=O)NCc2ccc3c(c2)OCO3)c1`, the “hERG current change (%, negative = inhibition) at 10uM” value falls from 1.14% to -12.5%.

Compared with `Cc1cc(Cl)ccc1OCCCC(=O)NCC1CCCO1` (stereo not shown), `Cc1ccc2[nH]c(=O)c(CN(CC3CCCO3)C(=S)NCc3ccco3)cc2c1` (stereo not shown) is lower in “hERG current change (%, negative = inhibition) at 10uM” value: -1.34% for the first, -8.49% for the second.

Compared with `CN1C2C=C3C(C#N)=C(N)C(C#N)(C#N)C(c4ccc(Br)cc4)C3C1CC2` (stereo not shown), `CCCC1CCC(c2ccc(/C(N)=N/O)cc2)CC1` (stereo not shown) is higher in “hERG current change (%, negative = inhibition) at 10uM” value: -14.9% for the first, 8.2% for the second.

Going from `COC(=O)CCCCC(=O)OC` to `COc1ccc(OC)c(S(=O)(=O)NCc2cn3ccsc3n2)c1`, the “hERG current change (%, negative = inhibition) at 10uM” value falls from 17% to -0.816%.

First: O=C1NC2(CCCCC2)Oc2ccccc21
Second: O=c1c2c(nc3c(-c4ccccc4)c[nH]n13)CCC2
The “hERG current change (%, negative = inhibition) at 10uM” value of the first is lower: 3.53% for the first, 10.9% for the second.

Compared with `N#C/C(=C\c1cc2c(cc1Br)OCO2)C(=O)NCC1CCCO1` (stereo not shown), `Cc1ccc(NC(=O)CNc2cc(S(=O)(=O)N3CCOCC3)ccc2NCC2CCCO2)cc1F` (stereo not shown) is lower in “hERG current change (%, negative = inhibition) at 10uM” value: -6.38% for the first, -7.18% for the second.

Going from `CCOC(=O)C1(CCOc2ccccc2)CCN(Cc2cnc(SC)nc2)CC1` to `COCCNC(=O)c1cc(-c2ccccc2)n(Cc2cc(C)no2)n1`, the “hERG current change (%, negative = inhibition) at 10uM” value rises from -72.2% to 0.26%.

Compared with `COC(=O)c1ccc(OC)c(OC2CCCC2)c1`, `COc1cc(S(=O)(=O)NC2CCCC2)ccc1Cl` is lower in “hERG current change (%, negative = inhibition) at 10uM” value: 10.5% for the first, 6.42% for the second.

Going from `COc1cccc(CNC(=O)C2CCC(=O)N(CCc3cccc(F)c3)C2)c1` (stereo not shown) to `Cc1cc2c(cc1C)NC(CC(=O)NCc1ccccc1)C(=O)N2` (stereo not shown), the “hERG current change (%, negative = inhibition) at 10uM” value rises from -13% to 0.987%.

Going from `O=C(Nc1ccc(C2SCCS2)cc1)c1ccccc1` to `CN1CCN(C(=O)c2cnn(-c3ccccc3)c2NC(=O)c2ccc(Br)cc2)CC1`, the “hERG current change (%, negative = inhibition) at 10uM” value falls from 1.04% to -81.4%.

Compared with `O=C(CO)N/N=C/c1ccccc1F`, `Cc1ccccc1N(CC(N)=O)S(C)(=O)=O` is lower in “hERG current change (%, negative = inhibition) at 10uM” value: 19.1% for the first, 11.3% for the second.

First: CCc1nc2ccc(C(=O)N3CCN(c4ccc(Cl)cc4)CC3)cc2nc1CC
Second: Fc1cccc(-c2oncc2-c2nnnn2-c2ccc(Cl)cc2)c1
The “hERG current change (%, negative = inhibition) at 10uM” value of the first is higher: -6.46% for the first, -13.9% for the second.

Going from `N#Cc1cccc(NC(=O)C2SC(=Nc3ccccc3)C(C(=O)N3CCOCC3)=C2N)c1` (stereo not shown) to `C=CCN(c1ccccc1)S(=O)(=O)c1ccc2c(c1)N(C(C)=O)CCO2`, the “hERG current change (%, negative = inhibition) at 10uM” value rises from -39.4% to -3.05%.

Going from `Clc1ccc(-c2nnc(-c3ccccc3)c(-c3c[nH]c4ccccc34)n2)cc1` to `Cc1nn(-c2ccccc2)c(/N=C/c2ccc(O)cc2)c1-c1ccccc1`, the “hERG current change (%, negative = inhibition) at 10uM” value falls from 12.7% to -1.49%.

Going from `Cc1ccccc1S(=O)(=O)Cc1ccc(C(=O)NC2CCCCC2C)o1` (stereo not shown) to `Cc1ccc(NCc2nnc(SCC(=O)N(Cc3ccccc3)C(C)(C)C)o2)c(C)c1`, the “hERG current change (%, negative = inhibition) at 10uM” value rises from -16.1% to -9.53%.

Compared with `COc1ccc2oc(C(=O)OCC(=O)N(C)CC(=O)Nc3ccc(C)cc3)c(C)c2c1`, `CCOC(=O)Cn1c(=O)oc2cc(S(=O)(=O)Nc3ccc(F)cc3)ccc21` is higher in “hERG current change (%, negative = inhibition) at 10uM” value: -25.8% for the first, -13% for the second.

First: O=C(O)c1nn(CCOc2c(Cl)cccc2Cl)c(=O)c2ccccc12
Second: O=C(Cn1nnc2c(cnn2-c2ccccc2)c1=O)NCc1cccs1
The “hERG current change (%, negative = inhibition) at 10uM” value of the first is higher: 11.8% for the first, 2.04% for the second.

Going from `Cc1cc(C)c(OCCN2CC(C)OC(C)C2)c(Br)c1.O=C(O)C(=O)O` (stereo not shown) to `CCN1CCN(CC(=O)Nc2cc(C(F)(F)F)ccc2OCCOC)CC1.O=C(O)C(=O)O`, the “hERG current change (%, negative = inhibition) at 10uM” value falls from -17.5% to -75.4%.

First: Cc1ccc(-n2c(O)c(C=Nc3cc(C)on3)c3ccccc3c2=O)c(C)c1
Second: COc1ccc(-c2noc(CSc3nc4ccccc4c(=O)n3-c3ccc(C)cc3)n2)cc1
The “hERG current change (%, negative = inhibition) at 10uM” value of the first is lower: 0.0307% for the first, 11.5% for the second.

Going from `CCNC(=S)NC1CC2CCCC(C1)N2Cc1ccco1` (stereo not shown) to `COc1ccc(C(=O)C2CCCN(C3CSCCSC3)C2)c(OC)c1` (stereo not shown), the “hERG current change (%, negative = inhibition) at 10uM” value falls from -19.1% to -43.6%.

Compared with `Cc1ccc(CNS(=O)(=O)c2c(C)[nH]c(=O)[nH]c2=O)cc1`, `CCCC(=O)N1CC(=O)Nc2ccc(C)cc2C1c1ccc(F)cc1` (stereo not shown) is lower in “hERG current change (%, negative = inhibition) at 10uM” value: 10.5% for the first, 0.427% for the second.

First: CC(C)[C@@H](C(=O)N[C@@H](Cc1ccccc1)C(=O)O)N1C(=O)N2CCc3c([nH]c4ccccc34)[C@@]2(C)C1=O
Second: CCC(=O)NC(c1ccccc1)c1nc2ccccc2[nH]1 (stereo not shown)
The “hERG current change (%, negative = inhibition) at 10uM” value of the first is lower: -1.5% for the first, 17.1% for the second.

Compared with `CC(=O)Nc1ccc(NC(=O)C(C)OC(=O)c2ccc(-n3cnnn3)cc2)cc1` (stereo not shown), `CCN(CC)C(=O)c1cnn(-c2ccccc2)c1NC(=O)c1ccccc1F` is lower in “hERG current change (%, negative = inhibition) at 10uM” value: 2.03% for the first, -3.32% for the second.

First: CCNc1nc(NC(C)C)nc(Oc2ccc(=O)n(C)n2)n1
Second: COc1cc(CNC(=O)c2nc(Cn3nc(C)c(Br)c3C)no2)cc(OC)c1
The “hERG current change (%, negative = inhibition) at 10uM” value of the first is higher: 16.6% for the first, -16.2% for the second.

Compared with `CCOc1ccc2c(c1)-c1c(ssc1=S)C(C)(C)N2`, `CCOC(=O)c1c(N)sc(-c2ccccc2)c1C` is higher in “hERG current change (%, negative = inhibition) at 10uM” value: 4.44% for the first, 7.12% for the second.

First: CC(C)(Oc1ccc(Cl)cc1)C(=O)NC1CCSC1=O (stereo not shown)
Second: O=C(NCc1ccc(Cl)cc1)C(=O)Nc1nccs1
The “hERG current change (%, negative = inhibition) at 10uM” value of the first is lower: -10.8% for the first, 20.7% for the second.

Compared with `C=CCn1c(O)c(N=NC(=O)CNC(=O)c2ccncc2)c2ccccc21`, `C=CCn1cc(-c2ccccc2)cc(C#N)c1=O` is higher in “hERG current change (%, negative = inhibition) at 10uM” value: -11.2% for the first, 9.02% for the second.

`CCCCCSc1nc2c(c(=O)[nH]c(=O)n2C)n1C` was tested, and the “hERG current change (%, negative = inhibition) at 10uM” value was -2.12%.
